Data reported in article PMC4336329 (PLoS ONE, 2015).
The campaign covered roughly 310,000 compounds. About 2,200 (0.71%) showed an effect of 50% or more. The effect is printed as a negative number. The list shows a part of the results.

What follows are molecules tested against human ether-à-go-go-related gene (hERG) potassium channel (human, UniProt Q12809) (assay: primary screen, population patch clamp on CHO cells stably expressing hERG).
Sequence of human ether-à-go-go-related gene (hERG) potassium channel (Q12809 whole entry, looked up): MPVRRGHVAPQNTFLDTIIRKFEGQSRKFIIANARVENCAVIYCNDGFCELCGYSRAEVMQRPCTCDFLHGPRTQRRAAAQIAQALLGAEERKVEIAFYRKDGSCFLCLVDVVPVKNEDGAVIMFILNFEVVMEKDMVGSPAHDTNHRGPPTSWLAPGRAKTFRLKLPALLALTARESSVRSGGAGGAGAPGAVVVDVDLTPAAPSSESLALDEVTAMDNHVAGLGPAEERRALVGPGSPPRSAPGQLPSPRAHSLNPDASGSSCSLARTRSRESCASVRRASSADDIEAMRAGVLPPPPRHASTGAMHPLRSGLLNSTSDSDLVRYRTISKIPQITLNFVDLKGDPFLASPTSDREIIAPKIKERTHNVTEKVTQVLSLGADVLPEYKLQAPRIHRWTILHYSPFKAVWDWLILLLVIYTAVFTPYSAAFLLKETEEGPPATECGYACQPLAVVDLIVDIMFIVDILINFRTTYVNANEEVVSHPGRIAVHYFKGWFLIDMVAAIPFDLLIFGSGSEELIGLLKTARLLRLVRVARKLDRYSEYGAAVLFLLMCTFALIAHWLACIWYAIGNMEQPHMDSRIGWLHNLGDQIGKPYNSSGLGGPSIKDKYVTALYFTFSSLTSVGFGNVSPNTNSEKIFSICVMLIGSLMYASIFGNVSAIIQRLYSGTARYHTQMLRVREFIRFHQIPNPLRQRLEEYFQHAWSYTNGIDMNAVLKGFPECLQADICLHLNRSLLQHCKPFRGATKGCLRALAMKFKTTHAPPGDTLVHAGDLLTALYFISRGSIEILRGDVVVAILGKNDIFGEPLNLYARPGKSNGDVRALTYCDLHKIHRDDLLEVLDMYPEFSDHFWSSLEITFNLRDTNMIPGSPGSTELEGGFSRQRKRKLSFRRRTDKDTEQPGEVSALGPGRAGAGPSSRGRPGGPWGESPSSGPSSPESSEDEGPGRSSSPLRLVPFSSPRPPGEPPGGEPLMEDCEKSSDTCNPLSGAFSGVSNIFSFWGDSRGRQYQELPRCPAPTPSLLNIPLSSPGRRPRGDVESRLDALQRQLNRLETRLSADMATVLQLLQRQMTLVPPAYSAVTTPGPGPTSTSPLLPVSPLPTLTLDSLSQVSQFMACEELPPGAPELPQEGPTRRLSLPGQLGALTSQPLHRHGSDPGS

| Structure (SMILES) | hERG current change (%, negative = inhibition) at 1uM |
| --- | --- |
| CN(CCc1ccccc1)C(=O)CCc1nnc(Cc2ccc3c(c2)OCO3)o1 | 7.64% |
| COc1cc(CNC(C)c2ccccc2)cc(Cl)c1OCC(=O)Nc1ccccc1.Cl (centres unmarked) | 15% |
| CCC(NC(=O)/C(=C\c1ccc2c(c1)OCO2)NC(C)=O)C(=O)O (centres unmarked) | -0.47% |
| CC(=O)c1ccc(S(=O)(=O)Nc2ccc(C(=O)NCC(c3cccs3)N3CCOCC3)cc2)cc1 (centres unmarked) | 15.1% |
| O=C(NCc1ccccc1)c1cc[n+]([O-])cc1 | 13.1% |
| Cc1nnsc1C(=O)N1CCCC(N2CCN(c3ccc(F)cc3)CC2)C1 (centres unmarked) | 12.3% |
| Nc1ccc(C(=O)OCCCc2nc3ccccc3[nH]2)cc1 | 16.9% |
| Cc1nn(C)cc1-c1n[nH]c(=S)n1-c1ccc(F)cc1 | 9.47% |
| CCCCSc1nnc(-c2ccc(NC(=O)CCc3ccccc3)cc2)n1C | 19.5% |
| CCN1C(=O)[C@@H]2[C@@H](c3ccc(-c4ccccc4)cc3)N3CCCC[C@@]3(C(=O)OC)[C@@H]2C1=O.O=C(O)C(F)(F)F | 11% |
| CCOC(=O)C1(Cc2cccc(OC)c2)CCN(Cc2cc(OC)ccc2OC)CC1 | -7.48% |
| CCOc1ccc(Cn2c3ccc(OC)cc3c3nc4ccccc4nc32)cc1 | 13.1% |
| CCOC(=O)CC1COCCN1C(=O)c1cc(COc2ccc(F)cc2Cl)on1 (centres unmarked) | 9.6% |
| O=C(N/N=C/c1ccc(Br)o1)c1cncc(Br)c1 | 7.97% |
| Cc1ccc(C)c(NCc2n[nH]c(=S)n2-c2ccccc2)c1 | 14% |
| CN(C)c1ccc(/C=C2/C(=N\O)C3CCN2CC3)cc1.Cl | 13.6% |
| CCCCCNC(=O)Cc1cc(=O)[nH]c(=O)[nH]1 | 18.4% |
| O=C(O)CN1C(=O)C(=O)N(Cc2ccc(Cl)cc2Cl)C1=O | 15.9% |
| CC(C)CNS(=O)(=O)c1ccc(CCC(=O)N2CCN(c3ccc(F)cc3)CC2)cc1 | -9.44% |
| O=c1[nH]c(=O)n(-c2ccc(Cl)cc2)c(O)c1C=NCCN1CCCCC1 | 13.3% |
| O=C(Nc1cc(N2CCCCC2)ncn1)c1ccc(F)cc1 | 3.11% |
| Cn1ncc([N+](=O)[O-])c1C(=O)Nc1ccccc1C(=O)O | 15.4% |

| Structure (SMILES) | hERG current change (%, negative = inhibition) at 1uM |
| --- | --- |
| CCC1=Nc2cc(C(=O)O)ccc2Sc2ccccc21 | 14% |
| NNC(=O)CNC(=O)c1ccc(F)cc1 | 14.9% |
| O=C(/C=C\c1ccco1)Nc1nc(-c2ccc3ccccc3c2)cs1 | 8.41% |
| Cc1ccc(Cl)c(NC(=S)N(CCCN2CCOCC2)Cc2ccco2)c1 | 2.83% |
| CCCc1cc(=O)[nH]c(SCC(=O)N2CCN(c3ccc(F)cc3)CC2)n1 | -3.04% |
| Cc1ccc(S(=O)(=O)N[C@H](C(=O)OCC(=O)N2N=C(c3ccc(Cl)cc3)CC2c2ccco2)C(C)C)cc1 (some centres unmarked) | 1.02% |
| Cc1ccc(C)c(OCCC(=O)OCC(=O)NCCc2ccc(S(N)(=O)=O)cc2)c1 | -20.3% |
| CC1(C)CC(=NO)CC(C)(C)N1 | 12% |
| CC(C)=N/N=C1/NC(=O)C(CC(=O)Nc2cc(Cl)ccc2C)S1 (centres unmarked) | 7.24% |
| N#Cc1ccccc1OCC(=O)OCC(=O)c1c[nH]c2ccccc12 | 7.92% |
| CCn1c(=O)c2cc(C(=O)NCc3cccs3)sc2c2ccccc21 | 15.2% |
| CCOC(=O)C1Sc2[nH]c(=O)sc2C(c2ccc(Cl)cc2)C1C(=O)OCC (centres unmarked) | 4.11% |
| O=C1C2C3C=CC([C@@H]2C(=O)N1C1CC1)[C@H]1C(=O)N(C2CC2)C(=O)C31 (some centres unmarked) | 10.3% |
| COc1ccc(NC(=S)N2CCN(C(c3ccccc3)c3ccccc3)CC2)c(OC)c1 | 6.25% |
| Cc1ccccc1-n1c(SCC(=O)NC(N)=O)nc2sc(-c3ccccc3)cc2c1=O | 11.6% |
| COc1ccc(OCCSc2ncn[nH]2)cc1 | -2.28% |
| COc1ccc(C23CC4CC(CC(C4)C2)C3)cc1C(=O)NCCN(C)C.Cl | 15.1% |
| O=C(O)CCC(=O)N1N=C(c2ccccc2)CC1c1cccs1 (centres unmarked) | 6.8% |
| O=C(NCc1ccccc1Cl)c1ccccc1CCc1ccccc1 | 2.9% |
| Cc1cc(C)cc(-n2ccnc2SCC(=O)c2c(N)n(C3CC3)c(=O)[nH]c2=O)c1 | 5.04% |
| CCOC(=O)Nc1ccc2c(c1)N(C(=O)CCN1CCOCC1)c1ccccc1S2.Cl | 19.1% |
| Cc1ccc(SCC(=O)Nc2cc([N+](=O)[O-])ccc2O)cc1 | 4.97% |
